Measurements reported in US20250270339A1 (Alector, published 2025).

T1: Cyno TfR ECD Avi-His (cynomolgus macaque, UniProt Q5RDH6 89-760 (Pongo abelii entry), biotin on the Avi tag (BirA) where captured on streptavidin)
T1 construct: also called Cyno TfR Avi-His; cyno TfR Avi-His
T1 chain: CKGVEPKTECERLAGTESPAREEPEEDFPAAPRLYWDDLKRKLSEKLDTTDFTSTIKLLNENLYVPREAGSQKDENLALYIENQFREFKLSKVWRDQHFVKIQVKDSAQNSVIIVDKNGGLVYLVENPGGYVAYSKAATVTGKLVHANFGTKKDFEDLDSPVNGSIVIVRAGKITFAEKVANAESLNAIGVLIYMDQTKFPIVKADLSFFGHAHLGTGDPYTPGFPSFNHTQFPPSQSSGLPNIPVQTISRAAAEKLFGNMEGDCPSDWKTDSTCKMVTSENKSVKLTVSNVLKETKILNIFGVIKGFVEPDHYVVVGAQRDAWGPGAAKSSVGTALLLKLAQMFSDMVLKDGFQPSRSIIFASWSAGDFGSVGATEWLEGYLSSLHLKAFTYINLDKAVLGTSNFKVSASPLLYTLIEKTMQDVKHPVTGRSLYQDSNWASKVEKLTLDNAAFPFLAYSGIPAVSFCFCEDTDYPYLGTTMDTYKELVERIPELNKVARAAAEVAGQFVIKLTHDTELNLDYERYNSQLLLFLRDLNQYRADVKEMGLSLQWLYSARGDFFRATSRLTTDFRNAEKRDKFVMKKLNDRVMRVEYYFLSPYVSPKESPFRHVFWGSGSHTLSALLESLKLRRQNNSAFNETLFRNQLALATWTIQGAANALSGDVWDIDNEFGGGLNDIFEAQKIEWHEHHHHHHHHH

B1: TfR15.WH7 2+1 anti-TfR bispecific antibody (bispecific antibody, human IgG1, kappa)
heavy 1: EVRLLESGGGLVQPGGSLRLSCAASGFTFSNYAMGWVRQAPGKGLEWVSAISGSGGSTYYADSVKGRFTTSRDDSKNALYLQMNSLRAEDTAVYYCARGGPGWYAADVWGQGTTVTVSSASTKGPSVFPLAPSSKSTSGGTAALGCLVKDYFPEPVTVSWNSGALTSGVHTFPAVLQSSGLYSLSSVVTVPSSSLGTQTYICNVNHKPSNTKVDKKV[here human IgG1 Fc with changes without letters]GGGGSGGGGSGGGGSQVQLVQSGAEVKKPGASVKVSCKASGYTFTSYWMHWVRQAPGQGLEWMGNIYPGSGSSNYAQKFQGRVTMTRDTSTSTVYMELSSLRSEDTAVYYCTRSSYYGNFDTMDNWGQGTTVTVSSGGSEGKSSGSGSESKSTGGSDIQLTQSPSFLSASVGDRVTITCRASSSIRYMNWYQQKPGKAPKRLIYDTSTLQSGVPSRFSGSGSGTEFTLTISSLQPEDFATYYCHQRSSYPWTFGGGTKVEIK
heavy 2: EVRLLESGGGLVQPGGSLRLSCAASGFTFSNYAMGWVRQAPGKGLEWVSAISGSGGSTYYADSVKGRFTTSRDDSKNALYLQMNSLRAEDTAVYYCARGGPGWYAADVWGQGTTVTVSS[here human IgG1 constant region with changes without letters]
light: DIQMTQSPSSLSASVGDRVTITCRASQSISSYLNWYQQKPGKAPKLLIYAASSLQSGVPSRFSGSGSGTDFTLTISSLQPEDFATYYCQQADLPAFAFGGGTKVEIKRTVAAPSVFIFPPSDEQLKSGTASVVCLLNNFYPREAKVQWKVDNALQSGNSQESVTEQDSKDSTYSLSSTLTLSKADYEKHKVYACEVTHQGLSSPVTKSFNRGEC
notes: 2+1
B2: TfR15.WH9 2+1 anti-TfR bispecific antibody (bispecific antibody, human IgG1, kappa)
heavy 1: EVRLLESGGGLVQPGGSLRLSCAASGFTFSNYAMGWVRQAPGKGLEWVSAISGSGGSTYYADSVKGRFTTSRDDSKNALYLQMNSLRAEDTAVYYCARGGPGWYAADVWGQGTTVTVSSASTKGPSVFPLAPSSKSTSGGTAALGCLVKDYFPEPVTVSWNSGALTSGVHTFPAVLQSSGLYSLSSVVTVPSSSLGTQTYICNVNHKPSNTKVDKKV[here human IgG1 Fc with changes without letters]GGGGSGGGGSGGGGSQVQLVQSGAEVKKPGASVKVSCKASGYTFTSYWMHWVRQAPGQGLEWMGNIYPGSGSSNYAQKFQGRVTMTRDTSTSTVYMELSSLRSEDTAVYYCTRSSYYGNFDTMDNWGQGTTVTVSSGGSEGKSSGSGSESKSTGGSDIQMTQSPSSLSASVGDRVTITCRASSSIRYLNWYQQKPGKAPKRLIYDTSSLQSGVPSRFSGSGSGTDFTLTISSLQPEDFATYYCHQRSSYPWTFGGGTKVEIK
heavy 2: EVRLLESGGGLVQPGGSLRLSCAASGFTFSNYAMGWVRQAPGKGLEWVSAISGSGGSTYYADSVKGRFTTSRDDSKNALYLQMNSLRAEDTAVYYCARGGPGWYAADVWGQGTTVTVSS[here human IgG1 constant region with changes without letters]
light: B1 light
notes: 2+1
B3: TfR15.WH10 2+1 anti-TfR bispecific antibody (bispecific antibody, human IgG1, kappa)
heavy 1: EVRLLESGGGLVQPGGSLRLSCAASGFTFSNYAMGWVRQAPGKGLEWVSAISGSGGSTYYADSVKGRFTTSRDDSKNALYLQMNSLRAEDTAVYYCARGGPGWYAADVWGQGTTVTVSSASTKGPSVFPLAPSSKSTSGGTAALGCLVKDYFPEPVTVSWNSGALTSGVHTFPAVLQSSGLYSLSSVVTVPSSSLGTQTYICNVNHKPSNTKVDKKV[here human IgG1 Fc with changes without letters]GGGGSGGGGSGGGGSQVQLVQSGAEVKKPGASVKVSCKASGYTFTSYWMHWVRQAPGQGLEWMGNIYPGSGSSNYAQKFQGRVTLTVDTSTSTVYMELSSLRSEDTAVYYCTRSSYYGNFDTMDNWGQGTTVTVSSGGSEGKSSGSGSESKSTGGSDIQLTQSPSFLSASVGDRVTITCRASSSIRYMNWYQQKPGKAPKRLIYDTSTLQSGVPSRFSGSGSGTEFTLTISSLQPEDFATYYCHQRSSYPWTFGGGTKVEIK
heavy 2: EVRLLESGGGLVQPGGSLRLSCAASGFTFSNYAMGWVRQAPGKGLEWVSAISGSGGSTYYADSVKGRFTTSRDDSKNALYLQMNSLRAEDTAVYYCARGGPGWYAADVWGQGTTVTVSS[here human IgG1 constant region with changes without letters]
light: B1 light
notes: 2+1
B4: TfR15.WH12 2+1 anti-TfR bispecific antibody (bispecific antibody, human IgG1, kappa)
heavy 1: EVRLLESGGGLVQPGGSLRLSCAASGFTFSNYAMGWVRQAPGKGLEWVSAISGSGGSTYYADSVKGRFTTSRDDSKNALYLQMNSLRAEDTAVYYCARGGPGWYAADVWGQGTTVTVSSASTKGPSVFPLAPSSKSTSGGTAALGCLVKDYFPEPVTVSWNSGALTSGVHTFPAVLQSSGLYSLSSVVTVPSSSLGTQTYICNVNHKPSNTKVDKKV[here human IgG1 Fc with changes without letters]GGGGSGGGGSGGGGSQVQLVQSGAEVKKPGASVKVSCKASGYTFTSYWMHWVRQAPGQGLEWMGNIYPGSGSSNYAQKFQGRVTLTVDTSTSTVYMELSSLRSEDTAVYYCTRSSYYGNFDTMDNWGQGTTVTVSSGGSEGKSSGSGSESKSTGGSDIQMTQSPSSLSASVGDRVTITCRASSSIRYLNWYQQKPGKAPKRLIYDTSSLQSGVPSRFSGSGSGTDFTLTISSLQPEDFATYYCHQRSSYPWTFGGGTKVEIK
heavy 2: EVRLLESGGGLVQPGGSLRLSCAASGFTFSNYAMGWVRQAPGKGLEWVSAISGSGGSTYYADSVKGRFTTSRDDSKNALYLQMNSLRAEDTAVYYCARGGPGWYAADVWGQGTTVTVSS[here human IgG1 constant region with changes without letters]
light: B1 light
notes: 2+1
B5: TfR15.WH8 2+1 anti-TfR bispecific antibody (bispecific antibody, human IgG1, kappa)
heavy 1: EVRLLESGGGLVQPGGSLRLSCAASGFTFSNYAMGWVRQAPGKGLEWVSAISGSGGSTYYADSVKGRFTTSRDDSKNALYLQMNSLRAEDTAVYYCARGGPGWYAADVWGQGTTVTVSSASTKGPSVFPLAPSSKSTSGGTAALGCLVKDYFPEPVTVSWNSGALTSGVHTFPAVLQSSGLYSLSSVVTVPSSSLGTQTYICNVNHKPSNTKVDKKV[here human IgG1 Fc with changes without letters]GGGGSGGGGSGGGGSQVQLVQSGAEVKKPGASVKVSCKASGYTFTSYWMHWVRQAPGQGLEWMGNIYPGSGSSNYAQKFQGRVTMTRDTSTSTVYMELSSLRSEDTAVYYCTRSSYYGNFDTMDNWGQGTTVTVSSGGSEGKSSGSGSESKSTGGSEIVLTQSPATLSLSPGERATLSCRASSSIRYMNWYQQKPGQAPRRLIYDTSNRATGIPARFSGSGSGTDFTLTISSLEPEDFAVYYCHQRSSYPWTFGGGTKVEIK
heavy 2: EVRLLESGGGLVQPGGSLRLSCAASGFTFSNYAMGWVRQAPGKGLEWVSAISGSGGSTYYADSVKGRFTTSRDDSKNALYLQMNSLRAEDTAVYYCARGGPGWYAADVWGQGTTVTVSS[here human IgG1 constant region with changes without letters]
light: B1 light
notes: 2+1
B6: TfR15.WH2 2+1 anti-TfR bispecific antibody (bispecific antibody, human IgG1, kappa)
heavy 1: EVRLLESGGGLVQPGGSLRLSCAASGFTFSNYAMGWVRQAPGKGLEWVSAISGSGGSTYYADSVKGRFTTSRDDSKNALYLQMNSLRAEDTAVYYCARGGPGWYAADVWGQGTTVTVSSASTKGPSVFPLAPSSKSTSGGTAALGCLVKDYFPEPVTVSWNSGALTSGVHTFPAVLQSSGLYSLSSVVTVPSSSLGTQTYICNVNHKPSNTKVDKKV[here human IgG1 Fc with changes without letters]GGGGSGGGGSGGGGSQVQLVQSGAEVKKPGASVKVSCKASGYTFTSYWMHWVRQAPGQGLEWMGIIYPGSGSSNYAQKFQGRVTMTRDTSTSTVYMELSSLRSEDTAVYYCTRSSYYGNFDTMDNWGQGTTVTVSSGGSEGKSSGSGSESKSTGGSEIVLTQSPATLSLSPGERATLSCRASSSIRYMNWYQQKPGQAPRRLIYDTSNRATGIPARFSGSGSGTDFTLTISSLEPEDFAVYYCHQRSSYPWTFGGGTKVEIK
heavy 2: EVRLLESGGGLVQPGGSLRLSCAASGFTFSNYAMGWVRQAPGKGLEWVSAISGSGGSTYYADSVKGRFTTSRDDSKNALYLQMNSLRAEDTAVYYCARGGPGWYAADVWGQGTTVTVSS[here human IgG1 constant region with changes without letters]
light: B1 light
notes: 2+1

Biological target: T1, Cyno TfR ECD Avi-His
Assay: SPR (Carterra LSA), 2+1 immobilised
Procedure: The remaining unconjugated active groups on the chip were then blocked by injecting 1M Ethanolamine pH 8.5 (Carterra) for 7 minutes using the single channel flow cell.
Estimates of affinity were generated by injecting each analyte over the entire antibody array using the single channel flow cell. […] Data were processed and analyzed using NextGenKIT high-throughput kinetics analysis software (Carterra).

Binder | Kd | binding result
B1 | 53 nM | –
B2 | 220 nM | –
B3 | 39 nM | –
B4 | – | binds
B5 | 18 nM | –
B6 | – | binds
